± gives the standard error. This sample is rich in variants without activity.
B1: glmS ribozyme (parent)
chain: AUAAAAGCGCCAGAACUACAGAAAUGUAGUUGACGAGGAGGAGGUUUAUCGAAUUUUCGGCGGAUGCCUCCAAA

Assays:
Settings in all cases: with glucosamine-6-phosphate
glucosamine-6-phosphate [1] = variants of: B1; assay: self-cleavage kobs at 40 uM GlcN6P; higher = faster cleavage; RNA array
Method in brief: (§1)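 Ribozyme variants carrying barcodes were transcribed in situ on sequenced MiSeq chips by E. coli RNA polymerase and tracked at 37 °C with a hybridised Cy3 probe. They were exposed to 40 μM to 10 mM glucosamine-6-phosphate in HEPES/KCl/Mg(OAc)2 buffer. kobs came from exponential decay fits of normalised per-tile medians, and kcat and KM from weighted Michaelis–Menten fits.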

glucosamine-6-phosphate [2] = variants of: B1; assay: self-cleavage kobs at 640 uM GlcN6P; higher = faster cleavage; RNA array
Method in brief: as §1

glucosamine-6-phosphate [3] = variants of: B1; assay: self-cleavage kobs at 160 uM GlcN6P; higher = faster cleavage; RNA array
Method in brief: as §1

glucosamine-6-phosphate [4] = variants of: B1; assay: self-cleavage kobs at 2500 uM GlcN6P; higher = faster cleavage; RNA array
Method in brief: as §1

glucosamine-6-phosphate [5] = variants of: B1; assay: self-cleavage kobs at 10000 uM GlcN6P; higher = faster cleavage; RNA array
Method in brief: as §1

| Variant | self-cleavage kobs at 40 uM GlcN6P (glucosamine-6-phosphate [1]) [s⁻¹] | self-cleavage kobs at 640 uM GlcN6P (glucosamine-6-phosphate [2]) [s⁻¹] | self-cleavage kobs at 160 uM GlcN6P (glucosamine-6-phosphate [3]) [s⁻¹] | self-cleavage kobs at 2500 uM GlcN6P (glucosamine-6-phosphate [4]) [s⁻¹] | self-cleavage kobs at 10000 uM GlcN6P (glucosamine-6-phosphate [5]) [s⁻¹] |
| --- | --- | --- | --- | --- | --- |
| A33U U57C | < 1e-05 | < 1e-05 | – | – | – |
| U31C A33U U46A G66A | < 1e-05 | – | < 1e-05 | < 1e-05 | < 1e-05 |
| U31A G60U | < 1e-05 | < 1e-05 | < 1e-05 | < 1e-05 | – |
| G32C A39G U49C G51U A52U C71U | < 1e-05 | < 1e-05 | – | < 1e-05 | < 1e-05 |
| U31A A53C | 4.92e-05 ± 9.4e-06 | – | – | – | – |
| G32A A36G | < 1e-05 | < 1e-05 | < 1e-05 | < 1e-05 | – |
| G32C U45C U69A | < 1e-05 | – | – | – | – |
| A33C A36U | < 1e-05 | – | – | < 1e-05 | – |
| G32A U54A | 6.3e-05 ± 1.3e-05 | 0.00067 ± 0.00011 | 0.000125 ± 2.9e-05 | 0.00157 ± 0.00026 | 0.00286 ± 0.00045 |
| A33C G35C | < 1e-05 | < 1e-05 | < 1e-05 | – | < 1e-05 |
| U31G C34U | < 1e-05 | < 1e-05 | < 1e-05 | – | < 1e-05 |
| U31A A33G G38A C67U | < 1e-05 | – | – | – | – |
| G32A A48C C67A | < 1e-05 | – | – | – | < 1e-05 |
| U31G A64U | < 1e-05 | < 1e-05 | < 1e-05 | < 1e-05 | – |
| G32U G44A | < 1e-05 | – | – | – | – |
| G32U A36C G63A | < 1e-05 | – | < 1e-05 | – | – |
| U31G U49G C50G | < 1e-05 | – | – | – | – |
| A33C G35U A36G C67U | < 1e-05 | – | – | – | < 1e-05 |
| U31C U54A G62U | < 1e-05 | – | – | – | – |
| U31C C61G C68A | < 1e-05 | – | – | – | < 1e-05 |
| A33G G51A A52C G62A | < 1e-05 | – | – | – | – |
| A33G C34A | < 1e-05 | – | – | – | < 1e-05 |
| G32C A52C | < 1e-05 | < 1e-05 | < 1e-05 | < 1e-05 | – |
| U31G U49C U54A G63C C68G U69G | < 1e-05 | – | – | – | – |
| A33G C61G | < 1e-05 | < 1e-05 | < 1e-05 | – | < 1e-05 |
| G32C U69G | 0.000189 ± 3.1e-05 | – | – | – | – |

| Variant | self-cleavage kobs at 40 uM GlcN6P (glucosamine-6-phosphate [1]) [s⁻¹] | self-cleavage kobs at 640 uM GlcN6P (glucosamine-6-phosphate [2]) [s⁻¹] | self-cleavage kobs at 160 uM GlcN6P (glucosamine-6-phosphate [3]) [s⁻¹] | self-cleavage kobs at 2500 uM GlcN6P (glucosamine-6-phosphate [4]) [s⁻¹] | self-cleavage kobs at 10000 uM GlcN6P (glucosamine-6-phosphate [5]) [s⁻¹] |
| --- | --- | --- | --- | --- | --- |
| A33C U49A C61U | < 1e-05 | – | – | < 1e-05 | – |
| A33C A39U U54G C61U | < 1e-05 | – | – | – | – |
| A33G A39G G41U C70G | < 1e-05 | – | – | – | – |
| U31A C34U G59U | < 1e-05 | – | – | – | < 1e-05 |
| U31A C58G | < 1e-05 | – | – | – | – |
| U31A C58U | < 1e-05 | – | < 1e-05 | – | – |
| A33C C61U | < 1e-05 | < 1e-05 | < 1e-05 | – | < 1e-05 |
| G32A G38C | < 1e-05 | – | < 1e-05 | < 1e-05 | < 1e-05 |
| A33C U49C | < 1e-05 | < 1e-05 | < 1e-05 | < 1e-05 | < 1e-05 |
| A33C U45G | < 1e-05 | – | < 1e-05 | – | – |
| G32C A33C | < 1e-05 | < 1e-05 | < 1e-05 | – | < 1e-05 |
| U31A G62A | < 1e-05 | – | < 1e-05 | – | < 1e-05 |
| G32A U54G G59A | < 1e-05 | – | – | – | – |
| U31C A39G C50U U54G C58A G60C G62U | < 1e-05 | – | – | – | – |
| A33U C50G C71G | 0.000128 ± 2.3e-05 | – | – | – | 0.0002 ± 4.2e-05 |
| U31G A48U A64C | < 1e-05 | – | – | – | < 1e-05 |
| U31G G60C | < 1e-05 | < 1e-05 | – | < 1e-05 | < 1e-05 |
| G32U G35U A48U C67G C71G | < 1e-05 | – | – | – | < 1e-05 |
| G32U G35C | < 1e-05 | < 1e-05 | < 1e-05 | – | < 1e-05 |
| A33U U46G U55A C58U C67A | < 1e-05 | – | – | – | – |
| A33C G35A A48C | < 1e-05 | < 1e-05 | < 1e-05 | < 1e-05 | < 1e-05 |
| G32U U46G C70A | < 1e-05 | – | – | – | – |
| G32C C34G | < 1e-05 | < 1e-05 | – | < 1e-05 | < 1e-05 |
| G32A C50U C61G U69G | < 1e-05 | – | – | – | – |
| G32C G59A A64U | < 1e-05 | – | – | – | < 1e-05 |
